B1: 2132 (αPD-1/IL-2m immunoconjugate; IL-2 with T3A + N88R and IL15 B′C′ loop region) (other)
chain: APASSSTKKTQLQLEHLLLDLQMILNGINNYKNPKLTRMLTFKFYMPKKATELKHLQCLEEELKPLEEVLNLAGDASIHDLISRINVIVLELKGSETTFMCEYADETATIVEFLNRWITFSQSIISTLTGGGGSGGGGS[human IgG1 Fc with changes not listed]
heavy: QVQLVQSGAEVKKPGSSVKVSCKASGGTFSSYAISWVRQAPGQGLEWMGLIIPMFDTAGYAQKFQGRVAITVDESTSTAYMELSSLRSEDTAVYYCARAEHSSTGTFDYWGQGTLVTVSSASTKGPSVFPLAPSSKSTSGGTAALGCLVKDYFPEPVTVSWNSGALTSGVHTFPAVLQSSGLYSLSSVVTVPSSSLGTQTYICNVNHKPSNTKVDKKVEPKSCDKTHTCPPCPAPEAAGGPSVFLFPPKPKDTLMISRTPEVTCVVVDVSHEDPEVKFNWYVDGVEVHNAKTKPREEQYNSTYRVVSVLTVLHQDWLNGKEYKCKVSNKALPAPIEKTISKAKGQPREPQVCTLPPSRDELTKNQVSLSCAVKGFYPSDIAVEWESNGQPENNYKTTPPVLDSDGSFFLVSKLTVDKSRWQQGNVFSCSVMHEALHNHYTQKSLSLSPGK
light: DIQMTQSPSSVSASVGDRVTITCRASQGISSWLAWYQQKPGKAPKLLISAASSLQSGVPSRFSGSGSGTDFTLTISSLQPEDFATYYCQQANHLPFTFGGGTKVEIKRTVAAPSVFIFPPSDEQLKSGTASVVCLLNNFYPREAKVQWKVDNALQSGNSQESVTEQDSKDSTYSLSSTLTLSKADYEKHKVYACEVTHQGLSSPVTKSFNRGEC
B2: 2063 (αPD-1/IL-2m immunoconjugate; IL-2 with T3A + N88D and IL15 B′C′ loop region) (other)
chain: APASSSTKKTQLQLEHLLLDLQMILNGINNYKNPKLTRMLTFKFYMPKKATELKHLQCLEEELKPLEEVLNLAGDASIHDLISDINVIVLELKGSETTFMCEYADETATIVEFLNRWITFSQSIISTLTGGGGSGGGGS[human IgG1 Fc with changes not listed]
heavy: B1 heavy
light: B1 light
B3: 2219 (αPD-1/IL-2m immunoconjugate; IL-2 with T3A + K35E + N88R + S127E and truncated IL-2 B′C′ loop region) (other)
chain: APASSSTKKTQLQLEHLLLDLQMILNGINNYKNPELTRMLTFKFYMPKKATELKHLQCLEEELKPLEEVLNLAQSKNFHDLISRINVIVLELKGSETTFMCEYADETATIVEFLNRWITFSQEIISTLTGGGGSGGGGS[human IgG1 Fc with changes not listed]
heavy: B1 heavy
light: B1 light
B4: 2214 (αPD-1/IL-2m immunoconjugate; IL-2 with T3A + F42A + N88R + S127E and IL15 B′C′ loop region) (other)
chain: APASSSTKKTQLQLEHLLLDLQMILNGINNYKNPKLTRMLTAKFYMPKKATELKHLQCLEEELKPLEEVLNLAGDASIHDLISRINVIVLELKGSETTFMCEYADETATIVEFLNRWITFSQEIISTLTGGGGSGGGGS[human IgG1 Fc with changes not listed]
heavy: B1 heavy
light: B1 light
B5: 2149 (αPD-1/IL-2m immunoconjugate; IL-2 with T3A + N88R + S130R and IL15 B′C′ loop region) (other)
chain: APASSSTKKTQLQLEHLLLDLQMILNGINNYKNPKLTRMLTFKFYMPKKATELKHLQCLEEELKPLEEVLNLAGDASIHDLISRINVIVLELKGSETTFMCEYADETATIVEFLNRWITFSQSIIRTLTGGGGSGGGGS[human IgG1 Fc with changes not listed]
heavy: B1 heavy
light: B1 light
B6: 2213 (αPD-1/IL-2m immunoconjugate; IL-2 with T3A + F42A + N88R + S127E and truncated IL-2 B′C′ loop region) (other)
chain: APASSSTKKTQLQLEHLLLDLQMILNGINNYKNPKLTRMLTAKFYMPKKATELKHLQCLEEELKPLEEVLNLAQSKNFHDLISRINVIVLELKGSETTFMCEYADETATIVEFLNRWITFSQEIISTLTGGGGSGGGGS[human IgG1 Fc with changes not listed]
heavy: B1 heavy
light: B1 light

The binders below were run against IL-2Rβγ complex (Fc heterodimer based on Knobs in holes: IL-2Rβ-Fc-Knob and IL-2Rγ-Fc-Hole) (human, biotin tag (avi tag)) (assay: SPR Biacore T200; biotinylated IL-2Rβγ captured on SA chip, molecule in the mobile phase).

Kd | Binder
258 nM | B1
42.5 nM | B2
551 nM | B3
100 nM | B4
630 nM | B5
466 nM | B6
